Reference: the supplement of paper PMC8948288
The sequences are guide strands of siRNAs; only the seed at positions 2 to 7 varies.

Columns and labels:
H4 = test: cell viability relative to siNT1 (ATP content); H4 human neuroglioma and GL261 mouse glioma; higher = less toxic; conditions: siRNA concentration 10 nM; 96 h; human
Method: (§1)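 Arrayed screen of all 4096 6mer seeds. Each seed sits at guide-strand positions 2-7 of a neutral 19mer siRNA backbone (siNT1-based, passenger strand 2'-O-methyl modified at positions 1-2 to block RISC loading, 3' DNA overhangs). The guide strand is built here as U + seed + ACAUGUAAACCA. Cells were reverse transfected in triplicate in 384-well plates (H4 at 10 nM, GL261 at 25 nM) with Lipofectamine RNAiMAX. Viability was read as ATP content (CellTiter-Glo) 96 h after transfection and normalised to siNT1 (%).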

GL261 = test: as above; conditions: siRNA concentration 25 nM; 96 h; mouse
Method: as §1
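Further: cells reverse transfected with siRNA duplexes via lipid reagent, ATP read by luminescence, triplicate wells, values scaled to mean viability with non-targeting control siNT1.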

Sequence: UAAAAAAACAUGUAAACCA
- cell viability (H4): 85.6%
- cell viability (GL261): 86%

Sequence: UAAAAACACAUGUAAACCA
- cell viability (H4): 89.2%
- cell viability (GL261): 54.4%

Sequence: UAAAAAGACAUGUAAACCA
- cell viability (H4): 99.7%
- cell viability (GL261): 72.7%

Sequence: UAAAAAUACAUGUAAACCA
- cell viability (H4): 87%
- cell viability (GL261): 55.9%

Sequence: UAAAACAACAUGUAAACCA
- cell viability (H4): 101%
- cell viability (GL261): 65.3%

Sequence: UAAAACCACAUGUAAACCA
- cell viability (H4): 71.6%
- cell viability (GL261): 36.9%

Sequence: UAAAACGACAUGUAAACCA
- cell viability (H4): 79.9%
- cell viability (GL261): 50%

Sequence: UAAAACUACAUGUAAACCA
- cell viability (H4): 83.3%
- cell viability (GL261): 68.8%

Sequence: UAAAAGAACAUGUAAACCA
- cell viability (H4): 99.2%
- cell viability (GL261): 68.4%

Sequence: UAAAAGCACAUGUAAACCA
- cell viability (H4): 77.2%
- cell viability (GL261): 46.5%

Sequence: UAAAAGGACAUGUAAACCA
- cell viability (H4): 91.3%
- cell viability (GL261): 56.4%

Sequence: UAAAAGUACAUGUAAACCA
- cell viability (H4): 73.3%
- cell viability (GL261): 59.8%

Sequence: UAAAAUAACAUGUAAACCA
- cell viability (H4): 82.7%
- cell viability (GL261): 55.7%

Sequence: UAAAAUCACAUGUAAACCA
- cell viability (H4): 87.8%
- cell viability (GL261): 39.9%

Sequence: UAAAAUGACAUGUAAACCA
- cell viability (H4): 102%
- cell viability (GL261): 62.7%

Sequence: UAAAAUUACAUGUAAACCA
- cell viability (H4): 85.5%
- cell viability (GL261): 60.9%

Sequence: UAAACAAACAUGUAAACCA
- cell viability (H4): 103%
- cell viability (GL261): 59%

Sequence: UAAACACACAUGUAAACCA
- cell viability (H4): 101%
- cell viability (GL261): 58.3%

Sequence: UAAACAGACAUGUAAACCA
- cell viability (H4): 91.7%
- cell viability (GL261): 53.9%

Sequence: UAAACAUACAUGUAAACCA
- cell viability (H4): 106%
- cell viability (GL261): 51.5%

Sequence: UAAACCAACAUGUAAACCA
- cell viability (H4): 101%
- cell viability (GL261): 64.7%

Sequence: UAAACCCACAUGUAAACCA
- cell viability (H4): 49.8%
- cell viability (GL261): 24.8%

Sequence: UAAACCGACAUGUAAACCA
- cell viability (H4): 108%
- cell viability (GL261): 89.5%

Sequence: UAAACCUACAUGUAAACCA
- cell viability (H4): 103%
- cell viability (GL261): 62.6%

Sequence: UAAACGAACAUGUAAACCA
- cell viability (H4): 97.2%
- cell viability (GL261): 62.8%

Sequence: UAAACGCACAUGUAAACCA
- cell viability (H4): 102%
- cell viability (GL261): 44.7%

Sequence: UAAACGGACAUGUAAACCA
- cell viability (H4): 96.5%
- cell viability (GL261): 55.6%

Sequence: UAAACGUACAUGUAAACCA
- cell viability (H4): 101%
- cell viability (GL261): 67%

Sequence: UAAACUAACAUGUAAACCA
- cell viability (H4): 84.3%
- cell viability (GL261): 76.1%

Sequence: UAAACUCACAUGUAAACCA
- cell viability (H4): 84.6%
- cell viability (GL261): 35.2%

Sequence: UAAACUGACAUGUAAACCA
- cell viability (H4): 96.1%
- cell viability (GL261): 68.9%

Sequence: UAAACUUACAUGUAAACCA
- cell viability (H4): 108%
- cell viability (GL261): 55.9%

Sequence: UAAAGAAACAUGUAAACCA
- cell viability (H4): 85.9%
- cell viability (GL261): 53.3%

Sequence: UAAAGACACAUGUAAACCA
- cell viability (H4): 80.7%
- cell viability (GL261): 36.8%

Sequence: UAAAGAGACAUGUAAACCA
- cell viability (H4): 88%
- cell viability (GL261): 60.9%

Sequence: UAAAGAUACAUGUAAACCA
- cell viability (H4): 109%
- cell viability (GL261): 55.4%

Sequence: UAAAGCAACAUGUAAACCA
- cell viability (H4): 82.1%
- cell viability (GL261): 52.4%

Sequence: UAAAGCCACAUGUAAACCA
- cell viability (H4): 45%
- cell viability (GL261): 25.7%

Sequence: UAAAGCGACAUGUAAACCA
- cell viability (H4): 106%
- cell viability (GL261): 52.6%

Sequence: UAAAGCUACAUGUAAACCA
- cell viability (H4): 66.9%
- cell viability (GL261): 31.2%

Sequence: UAAAGGAACAUGUAAACCA
- cell viability (H4): 84.4%
- cell viability (GL261): 60.3%

Sequence: UAAAGGCACAUGUAAACCA
- cell viability (H4): 40.3%
- cell viability (GL261): 35.5%

Sequence: UAAAGGGACAUGUAAACCA
- cell viability (H4): 67.8%
- cell viability (GL261): 57.7%

Sequence: UAAAGGUACAUGUAAACCA
- cell viability (H4): 56.5%
- cell viability (GL261): 57.6%

Sequence: UAAAGUAACAUGUAAACCA
- cell viability (H4): 85.2%
- cell viability (GL261): 55.9%

Sequence: UAAAGUCACAUGUAAACCA
- cell viability (H4): 91.5%
- cell viability (GL261): 38.7%

Sequence: UAAAGUGACAUGUAAACCA
- cell viability (H4): 91.6%
- cell viability (GL261): 58.2%
